# Source: PubChem BioAssay AID504937 (National Center for Advancing Translational Sciences (NCATS), 2011)
# Screen size: about 340,000 compounds; about 20 (0.006%) were called active. The inconclusive results got no clear call from the source; some entries with a clear call stand among them for comparison. Calls follow the shape of the dose curve; as a rule, active = well fitted inhibition curve with a large enough effect; inconclusive = small, poorly fitted or top-dose-only effect; inactive = no such curve, though single readings can be large or run the other way. Where the call is inconclusive, the potency comes from a doubtful curve fit.
# Target: Sphingomyelin phosphodiesterase (Homo sapiens) (UniProt P17405)
# Sequence of UniProt P17405 (P17405 whole entry, looked up): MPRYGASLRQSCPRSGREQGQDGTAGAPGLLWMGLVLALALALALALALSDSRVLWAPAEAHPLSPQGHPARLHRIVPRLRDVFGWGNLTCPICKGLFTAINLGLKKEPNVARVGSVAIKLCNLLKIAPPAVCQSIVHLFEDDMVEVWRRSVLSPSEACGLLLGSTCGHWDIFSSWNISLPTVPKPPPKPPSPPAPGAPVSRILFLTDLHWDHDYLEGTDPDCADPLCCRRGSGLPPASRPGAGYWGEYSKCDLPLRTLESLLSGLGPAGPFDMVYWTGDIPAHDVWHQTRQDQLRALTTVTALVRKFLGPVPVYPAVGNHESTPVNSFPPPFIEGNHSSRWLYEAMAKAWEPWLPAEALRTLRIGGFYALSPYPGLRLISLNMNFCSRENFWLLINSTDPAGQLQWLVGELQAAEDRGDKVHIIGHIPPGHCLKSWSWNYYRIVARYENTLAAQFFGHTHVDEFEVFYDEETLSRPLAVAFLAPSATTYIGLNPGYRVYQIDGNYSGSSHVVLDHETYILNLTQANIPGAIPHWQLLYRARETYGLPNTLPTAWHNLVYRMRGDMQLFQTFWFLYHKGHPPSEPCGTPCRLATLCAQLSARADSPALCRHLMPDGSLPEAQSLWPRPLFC
# Assay: Inhibitors of Secretory Acid Sphingomyelinase (S-ASM): qHTS
# Settings: placental ASM, HMU-PC fluorogenic substrate (series up to 57.5 µM), 60 min
# In short: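 Steps: dispense placental human ASM, pin compound, wait 10 min at room temperature, add HMU-PC0 substrate at 9 uM final, incubate 60 min at 37 °C, add stop solution raising pH to 10, read fluorescence.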
# Potency is read from the fitted curve at half-maximal effect; tags tell the direction and shape of the fitted curve.
row,SMILES,Potency
1,CCc1cc2cc3c(cc2nc1SCC(=O)Nc1nnc(C)s1)OCCO3,inactive
2,Cc1nc2ccccc2c(=O)n1/N=C/c1cn(-c2ccccc2)nc1-c1cccs1,"inconclusive: 282 µM [inhibitor, partial curve, poor fit]"
3,CN(C)c1ccc(/C=C2/C[N+](C)(C)C/C(=C/c3ccc(N(C)C)cc3)C2=O)cc1,"inconclusive: 79.4 µM [inhibitor, single point]"
4,COC(=O)CSCc1nc2ccccc2[nH]c1=O,inactive
5,CC(=O)c1ccc(N2C(=O)C3C(C2=O)C(C(=O)c2ccc(Cl)cc2)N2CCCC32)cc1 (stereo not given),inactive
6,CC1(C)c2ssc(=S)c2-c2ccccc2N1C(=O)c1ccco1,"inconclusive: 100 µM [inhibitor, partial curve, poor fit]"
7,CCOC(=O)c1sc(NC(=O)c2cc(-c3ccccc3C)nc3ccccc23)c(C#N)c1C,"inconclusive: 178 µM [inhibitor, partial curve]"
8,OC(COc1ccccc1)CN1C2=NCCCN2c2ccccc21 (stereo not given),inactive
9,C/C(=N\NS(=O)(=O)c1ccc(C)cc1)c1ccc(Br)s1,"inconclusive: 200 µM [inhibitor, partial curve, poor fit]"
10,O=C(Nc1nc(-c2cc(Cl)sc2Cl)cs1)c1ccccc1,"inconclusive: 251 µM [inhibitor, partial curve, poor fit]"
11,COc1ccc(COc2cc(-c3cccc(OC)c3)nc3ccc(NC(=O)c4cccnc4)cc23)cc1,"inconclusive: 79.4 µM [inhibitor, partial curve]"
12,C=CCO/N=C(\C)c1c(O)c(C)c(-c2ccccc2)n(-c2ccccc2)c1=O,"inconclusive: 112 µM [inhibitor, partial curve, poor fit]"
13,COC(=O)c1sc(NC(=S)NNC(=O)c2c(Br)c(C)nn2C)c(C(=O)OC)c1C,inactive
14,COc1cc(/C=C2\SC(=S)N(NS(=O)(=O)c3ccc(C)cc3)C2=O)cc(OC)c1OC,"inconclusive: 50.1 µM [inhibitor, partial curve, poor fit]"
15,Cn1nc(C(=O)OCC(=O)Nc2ccc(SC(F)F)cc2)c2ccccc2c1=O,"inconclusive: 79.4 µM [inhibitor, single point]"
16,CN1CCN(c2ccc(NC(=O)c3ccc(-c4ccc(Cl)cc4)o3)cc2)CC1,"inconclusive: 100 µM [inhibitor, partial curve, poor fit]"
17,O=C(N/N=C/c1cn(Cc2ccccc2)c2ccccc12)c1cc(O)cc(O)c1,"inconclusive: 50.1 µM [inhibitor, partial curve, poor fit]"
18,CC(=O)N(CCC(Cc1ccccc1)c1ccc2c(c1)OCO2)Cc1ccc(Cl)cc1 (stereo not given),"inconclusive: 398 µM [inhibitor, partial curve, poor fit]"
19,Cn1c(N)c(C(=O)COC(=O)COc2cc(Cl)c(Cl)cc2Cl)c(=O)n(C)c1=O,"inconclusive: 126 µM [inhibitor, partial curve, poor fit]"
20,CCCCCc1ccc(OCCCC[n+]2ccc(C)cc2)c(CCCCC)c1,"inconclusive: 178 µM [inhibitor, partial curve, poor fit]"

row,SMILES,Potency
1,CCCN(CC(=O)Nc1ccccc1C)C(=O)c1ccc(S(=O)(=O)N2CCC(C)CC2)cc1,inactive
2,CSc1ccc(/C=N\NC(=O)CNc2ccc(C)cc2)cc1,"inconclusive: 501 µM [inhibitor, partial curve, poor fit]"
3,CN(C)S(=O)(=O)c1ccc(S(=O)(=O)N(Cc2ccco2)Cc2ccccc2Cl)cc1,inactive
4,Cc1cc(-c2ccccc2)n(-c2ccc(C(=O)N3CCN(c4ncccn4)CC3)cc2)n1,inactive
5,CC(=O)Nc1ccc(C(=O)COC(=O)c2cc(C)oc2C)c(F)c1,"inconclusive: 178 µM [inhibitor, partial curve, poor fit]"
6,COc1ccc(N2CCN(C(=O)c3cn(C)c(=O)c4c3c3ccccc3n4C)CC2)cc1,"inconclusive: 100 µM [inhibitor, partial curve]"
7,CCN(CC)C(=O)[C@H]1C[C@H](CC(=O)NC/C=C(\C)CCC=C(C)C)C(=O)N2CCc3c([nH]c4cc(-c5ccco5)ccc34)[C@]12C,"inconclusive: 178 µM [inhibitor, partial curve, poor fit]"
8,Cc1ccc(Nc2cc(C)nn2-c2nc(C)cc(=O)[nH]2)cc1,"inconclusive: 316 µM [inhibitor, partial curve, poor fit]"
9,CC(=O)c1ccc(NC2=C(N3CCOCC3)C(=O)c3ccccc3C2=O)cc1,inactive
10,CCOCCn1c(C)c(C(=O)OCC)c2cc(O)c3ccccc3c21,inactive
11,COc1ccc(OCCNS(=O)(=O)c2ccc3oc4ccccc4c3c2)cc1,"inconclusive: 178 µM [inhibitor, partial curve, poor fit]"
12,CC1(c2cccc3ccccc23)OC(=O)c2ccccc21 (stereo not given),inactive
13,CCCOC(=O)c1ccc(-c2c(C)noc2-c2ccc(OC)cc2O)o1,"inconclusive: 112 µM [inhibitor, single point]"
14,Cc1snc(S(=O)(=O)/C(C#N)=N/Nc2cccc(C(F)(F)F)c2)c1C#N,"inconclusive: 79.4 µM [inhibitor, partial curve, poor fit]"
15,Cn1c(N)c(C(=O)CSc2nnc(NC3CCCCC3)s2)c(=O)n(C)c1=O,inactive
16,Cc1cc(/C=C2/SC(=S)N(c3ccc([N+](=O)[O-])cc3)C2=O)c(C)n1-c1cccnc1,"inconclusive: 112 µM [inhibitor, partial curve, poor fit]"
17,CCS(=O)(=O)C1=NSC2=NC(=O)/C(=C\c3ccc(OC(=O)c4ccco4)c(OC)c3)C(=N)N21,"inconclusive: 28.2 µM [inhibitor, partial curve, poor fit]"
18,Cc1ccc2nc(-c3cccc(NS(C)(=O)=O)c3)cc(-c3ccccc3)c2c1,"inconclusive: 112 µM [inhibitor, partial curve, poor fit]"
19,CC(C)C(NC(=O)c1ccccc1)C(=O)OCn1nnc2ccccc2c1=O (stereo not given),inactive
20,COc1ccccc1CC(=O)N1CCN(c2cccc(C(F)(F)F)c2)CC1,inactive
